Laboratory results from paper PMC5963807.
Results are given in words; binding and its absence hold for the method and conditions named. For part of these data: Binding seen in cells or lysates may run through a third protein. Some binding calls cover weakened binding; strength is not graded here. Tags and fused reporters may be left off the sequences shown.

T1: TBSV p33 replication protein (split-ubiquitin bait) (Tomato bushy stunt virus) (UniProt P15962)
T1 sequence: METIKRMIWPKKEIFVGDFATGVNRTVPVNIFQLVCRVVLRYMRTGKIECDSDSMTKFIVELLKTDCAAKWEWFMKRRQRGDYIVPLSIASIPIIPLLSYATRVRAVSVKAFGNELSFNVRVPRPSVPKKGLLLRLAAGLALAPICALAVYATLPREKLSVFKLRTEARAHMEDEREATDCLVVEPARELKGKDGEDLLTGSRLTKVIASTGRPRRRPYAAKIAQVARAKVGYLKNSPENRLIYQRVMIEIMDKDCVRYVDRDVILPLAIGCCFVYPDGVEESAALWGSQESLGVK

T2: Ufe1p (split-ubiquitin bait) (yeast (S. cerevisiae)) (UniProt P41834)
T2 sequence: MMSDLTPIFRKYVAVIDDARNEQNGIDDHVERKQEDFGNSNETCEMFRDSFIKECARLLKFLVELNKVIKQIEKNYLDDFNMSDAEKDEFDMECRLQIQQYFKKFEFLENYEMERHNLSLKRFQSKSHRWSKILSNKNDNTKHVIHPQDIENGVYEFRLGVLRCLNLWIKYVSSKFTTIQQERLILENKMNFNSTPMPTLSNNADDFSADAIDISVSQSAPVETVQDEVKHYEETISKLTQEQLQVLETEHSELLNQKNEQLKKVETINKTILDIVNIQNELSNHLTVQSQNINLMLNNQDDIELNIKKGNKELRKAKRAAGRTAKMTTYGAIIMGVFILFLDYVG

T3: FLAG/His6-p33 (Tomato bushy stunt virus) (UniProt P15962)
T3 sequence: T1 sequence

T4: nYFP-p33 (in yeast) (Tomato bushy stunt virus) (UniProt P15962)
T4 sequence: T1 sequence

B1: Ufe1p, N-terminally tagged split-ubiquitin prey (protein, UniProt P41834 1-346)
chain: T2 sequence
B2: Use1p, split-ubiquitin prey (protein, UniProt P53146 1-245)
chain: MAETSNDPFLSYVLSSKQLTNLNRLRRKAVTKQLGSSDDNKVSEEFLRYQHTYQREAFEYLQTKHDAHKIMESQYEQYQSSSKTRRYSIDLDSVDAVDTESQTEYPNEEFIDRNEDSEAVMELRKRLLGKGQNKGLGYETTKSVDRQIEDQDTLQQDLIQDMSKLVGSLKQGAVAFQSALDEDKQVLGAAEIGIQVASQGLMDVSGKLRKYDKSKLSYLFYITVFIFMILGLVFTFIIIQLFPAL
B3: 3xHA-tagged Ufe1p (protein, UniProt P41834 1-346)
chain: T2 sequence
B4: 3xHA-tagged Use1p (protein, UniProt P53146 1-245)
chain: B2 chain
B5: Ufe1-cYFP (protein, UniProt P41834 1-346)
chain: T2 sequence
B6: Scs2-cYFP (protein, UniProt P40075 1-244)
chain: MSAVEISPDVLVYKSPLTEQSTEYASISNNSDQTIAFKVKTTAPKFYCVRPNAAVVAPGETIQVQVIFLGLTEEPAADFKCRDKFLVITLPSPYDLNGKAVADVWSDLEAEFKQQAISKKIKVKYLISPDVHPAQNQNIQENKETVEPVVQDSEPKEVPAVVNEKEVPAEPETQPPVQVKKEEVPPVVQKTVPHENEKQTSNSTPAPQNQIKEAATVPAENESSSMGIFILVALLILVLGWFYR
B7: Osh6-cYFP (protein, UniProt Q02201 1-448)
chain: MGSKKLTVGSDSHRLSKSSFSSNKSSHSATKDQPIDTDDIDEDDESGHNIILNIISQLRPGCDLTRITLPTFILEKKSMLERVTNQLQFPEFLLQAHSEKDPLKRFLYVMKWYLAGWHIAPKAVKKPLNPVLGEYFTAYWDLPNKQQAYYISEQTSHHPPECAYFYMIPESSIRVDGVVIPKSRFLGNSSAAMMDGSTVLQFLDIKDGNGKPEKYVLTQPNVYVRGILFGKMRIELGDHMIIKSPNFQADIEFKTKGYVFGTYDAIEGTVKDYDGNAYYEISGKWNDVMYLKDLKQPRSSPKVFLDTHKESPLRPKVRPLSEQGEYESRKLWKKVTDALAVRNHPVATEEKFQIEDHQRQLAKKRIEDGVEFHPKLFRRSKPGEDLDYCIYKNIPVDEDPEKQIRSILQIAPILPGQQFTDKFFIPAFEKIKSQKKMIENEKQNPAKQ
B8: Dsl1p, C-terminally tagged split-ubiquitin prey (protein, UniProt P53847 1-754)
chain: MESLFPNKGEIIRELLKDPLILKNDSKRSNGSELELDSSDLLQREAILANELNILDNLKTFLNLIKEVKTNLNILELENCYYSLQSLRKKMRNNAAYLKQSFNFQQSISTYVDTLHLELVSTLYKILTNGFWKITENSIQFTPTVEWGKDKVHIEYDTFMDFVAQQYFPKGSLDNQAWFILDMTSADSQEQVRAKLNTIMKEYMNLSRIVSMIKNSIFISGKEISYENEKNILVFSKSSSHGQHCVSTVLTSFEAVCDFMLDGLAFRDRKTLSYELGPLFNTEFTKFVKNNASIILESLDSPLKNLVSVINNKLTRLVAKSEVTNWTHSGKEIQDLLMNKQLYYNLLLDKVLESHISEIRSIFEDPKKSWQNLEVVELTTSNTNTMSEKIGKNDSDVQNEKELHNAVSKDDDWNWEVEDDDADAWGDEIDVNIDDEEEKTNQEKEKEPEEEENAWDEAWAIDENIDDASLENGKEHLKAHDVGSLDKDHIEVTQLPKLFLAISQNFKSSFADSHVDEQYFAYKYNLLQTSYMAMCTANFSHNWCQLYVDMRYLIERDEKLYRIKELTRNLLETKLNMKYRIVCQLIRHQLTEFRENERNPSWDATIEKLLPYILKEIVRPLQKIRGEEGSRYLLSFLNFLYNDCVTKEILKWQIISEVNSENLGELVSLLVNNTDIQLLAKEPSYKKMREKFATMGKFLPLHLKEIMEMFYNGDFYLFATDELIQWIELLFADTPLRRNAIDDIYEIRGTALDD
B9: Sec20p, split-ubiquitin prey (protein, UniProt P28791 1-383)
chain: MVVTFLQDLEVLQDALLNNLQKLSAISRRKESGESKHDNKDSFAAIANEHNDEEEEIEFEDLVNIIESKVSDFESVLKCSIVEMTYKYPELKLQWEKSPRYDQCDKLHIVKLDKQMNEDIYAQLVEELDFVLQFVDWFYCYRLKVKEILRQHHKRDLAWNDEKRDRAIKFHAVDYDKLHQGTSSSSSLTSTSMEKASTREKLLSKTKQLTNNLVRGNQILQSGILQSDLNLDELRAQTNSLTQIDDKYTQFETVFKKTADLVKVLENASHQEKRDVYLSLGFLLCCVSWVLWRRIFKLPVKLGLWLLFKFFKGILVTLGLVKSYAGSSSSLQAPSLVLNAPILATTTTSSATSVEPFASVSAVSSIQRAVDEAVDRIVSHDEL
B10: Erg9p, N-terminally tagged split-ubiquitin prey (enzyme, UniProt P29704 1-444)
chain: MGKLLQLALHPVEMKAALKLKFCRTPLFSIYDQSTSPYLLHCFELLNLTSRSFAAVIRELHPELRNCVTLFYLILRALDTIEDDMSIEHDLKIDLLRHFHEKLLLTKWSFDGNAPDVKDRAVLTDFESILIEFHKLKPEYQEVIKEITEKMGNGMADYILDENYNLNGLQTVHDYDVYCHYVAGLVGDGLTRLIVIAKFANESLYSNEQLYESMGLFLQKTNIIRDYNEDLVDGRSFWPKEIWSQYAPQLKDFMKPENEQLGLDCINHLVLNALSHVIDVLTYLAGIHEQSTFQFCAIPQVMAIATLALVFNNREVLHGNVKIRKGTTCYLILKSRTLRGCVEIFDYYLRDIKSKLAVQDPNFLKLNIQISKIEQFMEEMYQDKLPPNVKPNETPIFLKVKERSRYDDELVPTQQEEEYKFNMVLSIILSVLLGFYYIYTLHRA

What was measured:
[1] = molecular target: T1, TBSV p33 replication protein (split-ubiquitin bait) (Tomato bushy stunt virus); assay: two-hybrid; split-ubiquitin-based membrane yeast two-hybrid assay (MYTH); bait co-expressed with NubG-tagged prey in yeast; empty prey vector (NubG) as negative control
[2] = molecular target: T2, Ufe1p (split-ubiquitin bait) (yeast (S. cerevisiae)); assay: as above
[3] = molecular target: T3, FLAG/His6-p33 (Tomato bushy stunt virus); assay: co-IP; FLAG-p33 immobilized on a FLAG column from the detergent-solubilized membrane fraction of yeast; eluted proteins blotted with anti-HA; His6-p33 extract as negative control
[4] = molecular target: T4, nYFP-p33 (in yeast) (Tomato bushy stunt virus); assay: split reporter; BiFC in yeast, nYFP-p33 with cYFP-tagged host protein, confocal microscopy; for Scs2 and Osh6 also with co-expressed dominant-negative Ufe1ΔTM (signal greatly reduced)

Binder | binding [1] | binding [4] | other results
B1 | binds | – | –
B2 | binds | – | binding [2]: binds
B3 | – | – | binding [3]: binds
B4 | – | – | binding [3]: binds
B5 | – | binds | –
B6 | – | binds | –
B7 | – | binds | –
B8 | binds weakly | – | –
B9 | binds weakly | – | –
B10 | no binding | – | binding [2]: binds
